The list shows a part of the results. Cleavage of a single-stranded DNA pool by Rep nickase domains was read by sequencing (1 h at 37 °C, 3 µM enzyme); the outer parts of the 90-letter strands are left off. Values are log2 of uncut reads against the no-enzyme pool; the lower, the more was cut; hits are not called. Shares of all reads are compared, so uncut sequences can rise above 0 when many others are cut.
Test system: T1, Rep nickase domain of tomato golden mosaic virus
T1 sequence (residues 1-124, tag not shown): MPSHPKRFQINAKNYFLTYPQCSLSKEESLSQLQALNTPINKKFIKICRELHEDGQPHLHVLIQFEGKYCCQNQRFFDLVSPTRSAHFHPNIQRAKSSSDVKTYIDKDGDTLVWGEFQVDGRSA
Experiment: uncleaved DNA left, log2 of reads against the no-enzyme library (log2 ratio); higher = less cleavage (more negative = more Rep cleavage of the k-mer); sequences stand for … in CTCGTCCG…ACCGGAGA
Description: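 A pool of 90-nt single-stranded DNAs with seven random bases just before the constant AC of the nick site (name = the seven bases) was cut by 3 µM recombinant His6-SUMO-tagged Rep nickase domain (300 nM DNA, 50 mM HEPES pH 8.0, 50 mM NaCl, 1 mM MnCl2, 1 h, 37 °C, three replicates). Uncut DNA was amplified and sequenced.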

Question: With CAGCACT as the sequence, how does the “uncleaved DNA left (log2)” value read?
Answer: 0.127

Question: How did the “uncleaved DNA left (log2)” value turn out when AACTTAA was run?
Answer: 0.158

Question: For AAAAGAC, which “uncleaved DNA left (log2)” value is on record?
Answer: 0.0897

Question: Which “uncleaved DNA left (log2)” value does the source give for CTTATCC here?
Answer: -0.147

Question: CCAAGTT was tested. Which “uncleaved DNA left (log2)” value did it give?
Answer: -0.157

Question: Which “uncleaved DNA left (log2)” value does the source give for ACTTGCC here?
Answer: -0.154

Question: AAAATTC was tested. Which “uncleaved DNA left (log2)” value did it give?
Answer: 0.106

Question: For GCGGGAA, which “uncleaved DNA left (log2)” value is on record?
Answer: -0.0353

Question: Which “uncleaved DNA left (log2)” value does the source give for TCAAGCC here?
Answer: -0.071

Question: How did the “uncleaved DNA left (log2)” value turn out when GTCTCAT was run?
Answer: -0.023

Question: With TCCACTC as the sequence, how does the “uncleaved DNA left (log2)” value read?
Answer: -0.12

Question: TACTTTC was tested. Which “uncleaved DNA left (log2)” value did it give?
Answer: -0.156

Question: For GATCACG, which “uncleaved DNA left (log2)” value is on record?
Answer: -0.183

Question: For GGGTCTT, which “uncleaved DNA left (log2)” value is on record?
Answer: -0.142

Question: With ATCTAGT as the sequence, how does the “uncleaved DNA left (log2)” value read?
Answer: 0.00814

Question: GTATCAC was tested. Which “uncleaved DNA left (log2)” value did it give?
Answer: -0.053

Question: CCTAGCC was tested. Which “uncleaved DNA left (log2)” value did it give?
Answer: -0.177

Question: CAGATGA was tested. Which “uncleaved DNA left (log2)” value did it give?
Answer: 0.0272

Question: GTAATAG was tested. Which “uncleaved DNA left (log2)” value did it give?
Answer: -0.0639

Question: Which “uncleaved DNA left (log2)” value does the source give for TCAACCC here?
Answer: -0.0174

Question: For AATTTGA, which “uncleaved DNA left (log2)” value is on record?
Answer: -0.0746

Question: For AGTCCGT, which “uncleaved DNA left (log2)” value is on record?
Answer: -0.00375

Question: ATTCTGG was tested. Which “uncleaved DNA left (log2)” value did it give?
Answer: 0.16

Question: AGAATGC was tested. Which “uncleaved DNA left (log2)” value did it give?
Answer: -0.0167

Question: For CCGACAC, which “uncleaved DNA left (log2)” value is on record?
Answer: 0.0806

Question: How did the “uncleaved DNA left (log2)” value turn out when ACTCTGG was run?
Answer: 0.068

Question: How did the “uncleaved DNA left (log2)” value turn out when GTGTGTG was run?
Answer: -0.0669

Question: With CTGGATA as the sequence, how does the “uncleaved DNA left (log2)” value read?
Answer: -0.00224

Question: For CGGTTAG, which “uncleaved DNA left (log2)” value is on record?
Answer: -0.05

Question: Which “uncleaved DNA left (log2)” value does the source give for GAGCACA here?
Answer: 0.0536

Question: CATGTGG was tested. Which “uncleaved DNA left (log2)” value did it give?
Answer: -0.0117

Question: Which “uncleaved DNA left (log2)” value does the source give for GCGCCCG here?
Answer: -0.0554

Question: How did the “uncleaved DNA left (log2)” value turn out when CTCCTAA was run?
Answer: -0.0849

Question: Which “uncleaved DNA left (log2)” value does the source give for CTCCTAT here?
Answer: -0.16

Question: Which “uncleaved DNA left (log2)” value does the source give for CTATTTC here?
Answer: -0.092

Question: How did the “uncleaved DNA left (log2)” value turn out when AACATGA was run?
Answer: -0.0672

Question: CCCCTAG was tested. Which “uncleaved DNA left (log2)” value did it give?
Answer: -0.183

Question: How did the “uncleaved DNA left (log2)” value turn out when TACAGTT was run?
Answer: -0.291

Question: With GTAGACA as the sequence, how does the “uncleaved DNA left (log2)” value read?
Answer: 0.0821

Question: With GGGCTTG as the sequence, how does the “uncleaved DNA left (log2)” value read?
Answer: 0.0823

Source: the supplement of paper PMC7826260
